According to PubChem BioAssay AID504332 (National Center for Advancing Translational Sciences (NCATS), 2011):
Hit rate of the full screen: of about 350,000 compounds, about 31,000 (8.9%) were called active. The inconclusive results got no clear call from the source; some entries with a clear call stand among them for comparison. Calls follow the shape of the dose curve; as a rule, active = well fitted inhibition curve with a large enough effect; inconclusive = small, poorly fitted or top-dose-only effect; inactive = no such curve, though single readings can be large or run the other way. Potencies beside an inconclusive call are fits to weak or partial responses and may not hold up.

biological target: Histone-lysine N-methyltransferase EHMT2 (Homo sapiens) (UniProt Q96KQ7); assay: qHTS Assay for Inhibitors of Histone Lysine Methyltransferase G9a; conditions: G9a H3K9 monomethylation, AlphaScreen, 2 h; activity, negative = inhibition: at 59 µM (top of the series) unless noted; also: nearly all actives have a fitted effect of over 75% in size
How it was run: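 Methyltransferase reactions run at room temperature for 2 h (20 nM enzyme, 500 nM biotin-H3K9 peptide, 20 uM SAM) after a 15 min compound preincubation; product detected by AlphaScreen beads and anti-H3K9me1 antibody.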
% is scaled to controls: 0 for no effect and ±100 for the full control effect; potency is read from the fitted curve at half-maximal effect; tags tell the direction and shape of the fitted curve.

UniProt Q96KQ7, sequence (Q96KQ7 whole entry, looked up): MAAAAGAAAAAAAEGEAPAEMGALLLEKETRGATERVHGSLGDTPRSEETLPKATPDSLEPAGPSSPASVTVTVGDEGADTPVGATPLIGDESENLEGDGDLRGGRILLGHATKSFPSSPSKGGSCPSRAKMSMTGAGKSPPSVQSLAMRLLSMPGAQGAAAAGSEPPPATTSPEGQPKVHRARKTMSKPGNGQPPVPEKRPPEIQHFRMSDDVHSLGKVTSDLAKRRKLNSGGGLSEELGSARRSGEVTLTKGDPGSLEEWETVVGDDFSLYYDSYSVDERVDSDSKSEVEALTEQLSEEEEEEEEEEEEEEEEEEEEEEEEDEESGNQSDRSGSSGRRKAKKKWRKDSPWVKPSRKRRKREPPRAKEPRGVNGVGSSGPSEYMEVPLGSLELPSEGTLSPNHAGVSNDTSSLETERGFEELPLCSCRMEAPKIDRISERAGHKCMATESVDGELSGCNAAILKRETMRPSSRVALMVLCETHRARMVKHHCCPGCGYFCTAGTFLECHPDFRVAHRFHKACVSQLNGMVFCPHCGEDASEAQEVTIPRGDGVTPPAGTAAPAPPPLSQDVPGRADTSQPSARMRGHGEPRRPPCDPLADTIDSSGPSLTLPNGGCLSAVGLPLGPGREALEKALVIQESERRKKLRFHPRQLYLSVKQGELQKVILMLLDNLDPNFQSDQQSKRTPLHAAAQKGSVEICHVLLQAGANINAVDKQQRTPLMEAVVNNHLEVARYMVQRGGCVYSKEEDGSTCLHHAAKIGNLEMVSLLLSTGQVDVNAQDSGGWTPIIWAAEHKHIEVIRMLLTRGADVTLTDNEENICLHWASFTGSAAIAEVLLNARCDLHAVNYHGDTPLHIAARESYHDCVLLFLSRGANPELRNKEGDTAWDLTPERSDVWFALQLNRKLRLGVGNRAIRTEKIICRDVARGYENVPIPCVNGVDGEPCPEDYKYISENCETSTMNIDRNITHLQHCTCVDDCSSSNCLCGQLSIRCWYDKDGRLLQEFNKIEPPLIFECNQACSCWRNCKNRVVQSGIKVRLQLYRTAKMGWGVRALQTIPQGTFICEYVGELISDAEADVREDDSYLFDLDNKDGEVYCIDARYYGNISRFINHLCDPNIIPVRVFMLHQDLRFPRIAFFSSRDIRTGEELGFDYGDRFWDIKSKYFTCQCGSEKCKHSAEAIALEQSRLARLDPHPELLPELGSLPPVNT

Structure (SMILES) | Potency | activity, negative = inhibition
COCCCNCCOCCOc1ccc(Cl)cc1C(C)(C)C | active: 8.91 µM | –
O=C(Nc1nccs1)c1cccnc1 | – | inactive: 28.3% [at 102 µM]
CCn1c(SCc2nc3sc(C(=O)O)c(C)c3c(=O)[nH]2)nnc1-c1ccc(Cl)cc1 | inconclusive: 56.2 µM [inhibitor, partial curve, poor fit] | –
Cc1cccc(NC(=O)c2cc([N+](=O)[O-])ccc2N2CCN(C)CC2)c1 | inconclusive: 44.7 µM [inhibitor, partial curve, poor fit] | –
COc1ccc(Cl)cc1C(=O)NNC(=S)NC1CCCC1 | – | inactive: 16.1% [at 102 µM]
O=C(CCC(=O)N1CCOc2ccc(Cl)cc21)NCc1ccccc1 | – | inactive: 29.9% [at 102 µM]
Brc1ccc(CN2CCN(Cc3c[nH]c4ccccc34)CC2)cc1 | active: 50.1 µM | –
O=[N+]([O-])c1ccc(/C=N/NC(=S)Nc2ccc(Cl)cc2Cl)s1 | – | inconclusive: -92.5% [inhibitor]
COc1cccc(C2C3=C(CCCC3=O)NC3=C2C(=O)c2ccccc23)c1 (stereo unspecified) | – | inconclusive: -53.6% [inhibitor] [at 12.7 µM]
COc1cc(-c2cc(=O)c3c(O)c(OC)c(OC)c(OC)c3o2)cc(OC)c1OC | – | inconclusive: -54% [inhibitor]
COc1ncc2nc(-c3cc(F)cc(F)c3)c(=O)n(CCC#N)c2n1 | – | inactive: 3.08% [at 12.7 µM]
COc1ccc(S(=O)(=O)c2c(C)c(NS(=O)(=O)c3ccccc3)cc(C)c2O)cc1 | inconclusive: 50.1 µM [inhibitor, partial curve, poor fit] | –
Cc1ccc(CSCC(=O)Nc2ccc(N3CCOCC3)cc2N2CCOCC2)cc1 | active: 28.2 µM | –
COc1ccc(CCNC(=O)CCN2C(=O)C(C)Oc3ccc(C)cc32)cc1OC (stereo unspecified) | – | inactive: 65.5% [at 12.7 µM]
CCOC(=O)c1c(O)c2ccccc2n(CC)c1=O | inconclusive: 44.7 µM [inhibitor, partial curve] | –
COc1ccc(C2=NC(c3ccncc3)=Nc3ccc(Br)cc3N2)cc1 | inconclusive: 15.8 µM [inhibitor, partial curve, poor fit] | –
Nc1ccccc1NC1=CC(=O)CC(c2ccco2)C1 (stereo unspecified) | active: 10 µM | –
Cc1cc(-c2ccc(S(=O)(=O)N3CCN(c4cccc(C)c4C)CC3)s2)on1 | – | inactive: 14.5% [at 102 µM]
O=C1CCN2C=Nc3cccc4ccc1c2c34 | – | inactive: -9.48% [at 2.33 µM]
Cc1ccc(C2=CC(c3ccccc3F)n3c(nc4ccccc43)N2)cc1C (stereo unspecified) | inconclusive: 39.8 µM [inhibitor, single point] | –
Cc1ccc2nc3sc(C(=O)NCc4ccco4)c(N)c3cc2c1 | active: 1.58 µM | –
O=c1c2[nH]c3ccccc3c2nc2n1CCCS2 | inconclusive: 50.1 µM [inhibitor, partial curve, poor fit] | –
CCN(CC(=O)NCc1ccc(F)cc1)Cc1nc2cc(Cl)ccc2c(=O)[nH]1 | inconclusive: 31.6 µM [inhibitor, partial curve, poor fit] | –

Structure (SMILES) | Potency | activity, negative = inhibition
CCOC(=O)c1nn(-c2ccc(C)cc2)c(=O)c2c(N)scc12 | active: 1.26 µM | –
CCOC(=O)c1ccc(NS(=O)C23CC4CC(CC(C4)C2)C3)cc1 (stereo unspecified) | active: 5.01 µM | –
O=C(CN1CCN(Cc2ccc(F)cc2Cl)C1=O)NCCc1ccccc1 | inconclusive: 89.1 µM [inhibitor, single point] | –
c1ccc(-c2cncn2-c2ccccc2)cc1 | – | inactive: 2.04% [at 2.33 µM]
Nc1nc(SCC(=O)NCCN2CCOCC2)nc2sc3c(c12)CCC3 | inconclusive: 28.2 µM [inhibitor, single point] | –
CC(C)CCn1c(=O)c2sccc2n2c(CCCC(=O)NC(C)C)nnc12 | – | inactive: -24.2%
CN(C[C@H](Cc1ccccc1)N(C[C@H](Cc1cccc2ccccc12)N(CCc1ccccc1)N=O)N=O)N=O | inconclusive: 1.41 µM [inhibitor, single point] | –
CC(/C=C1\N=C(SCc2ccccc2)SC1=O)=C\c1ccccc1 | – | inactive: -18.4%
N#C/C(=N/Nc1ccc(S(=O)(=O)N2CCOCC2)cc1)C(N)=O | – | inactive: 0.079% [at 102 µM]
COC(=O)c1sccc1NC(=O)Nc1ccc(OC)c(OC)c1 | inconclusive: 8.91 µM [inhibitor, partial curve, poor fit] | –
N#CC1=C(N)Oc2cc(N)ccc2C1c1cccnc1 (stereo unspecified) | – | inactive: 5.68% [at 102 µM]
CC(C)(C)c1ccc(Cn2nnc3c(=O)[nH]c(C4CCCN(C(=O)c5cccs5)C4)nc32)cc1 (stereo unspecified) | inconclusive: 7.94 µM [inhibitor, full curve] | –
COc1ccc(C2/C=C\CC(NC(=O)OCC3c4ccccc4-c4ccccc43)CC(=O)N2Cc2cccc(F)c2)cc1 (stereo unspecified) | inconclusive: 6.31 µM [inhibitor, single point] | –
COc1cc(O)c(C(CC(=O)N2CCCCC2)c2ccc(N(C)C)cc2)c(OC)c1 (stereo unspecified) | – | inconclusive: -58.3% [inhibitor] [at 12.7 µM]
Cc1cccc(OCC(=O)Nc2ccccc2OCc2cc(=O)n3ccccc3n2)c1 | – | inactive: -1.7%
CCC(C(=O)O)n1c2ccccc2c2cn[nH]c(=O)c21 (stereo unspecified) | active: 44.7 µM | –
FC(F)(F)c1cc(-c2ccco2)nc(-n2nnc3ccccc32)n1 | inconclusive: 70.8 µM [inhibitor, partial curve, poor fit] | –
CCCCCCCSc1nnc(-c2ccccc2N)c(=O)[nH]1 | inconclusive: 39.8 µM [inhibitor, partial curve, poor fit] | –
COc1ccc(OC)c(C2=NO[C@@H]3C(=O)N(c4cc(Cl)ccc4OC)C(=O)[C@H]23)c1 | inconclusive: 5.62 µM [inhibitor, single point] | –
COc1ccc(-c2cn(Cc3ccc4ccccc4c3)nn2)cc1 | inconclusive: 3.98 µM [inhibitor, full curve, poor fit] | –
Cc1cc(C)cc(NC(=O)c2cccc(C(=O)Nc3cc(C)cc(C)c3)n2)c1 | inconclusive: 3.16 µM [inhibitor, full curve, poor fit] | –
Cc1cccc(-n2c(-c3csc(C)c3C)n[nH]c2=S)c1 | active: 1.12 µM | –
COc1ccc(-n2c(=O)c3c4c(sc3n(Cc3ccccc3Cl)c2=O)CCC4)c(OC)c1 | inconclusive: 7.94 µM [inhibitor, partial curve, poor fit] | –
